# Reference: article PMC4336329 (PLoS ONE, 2015)
# Out of some 310,000 compounds screened, about 14,000 (4.5%) showed an effect of 50% or more. Effects have a minus sign here. This is one part of the list.
# Target: human ether-à-go-go-related gene (hERG) potassium channel (human, UniProt Q12809)
# Test: primary screen, population patch clamp on CHO cells stably expressing hERG
# 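Further: peak tail current of the secondary pulse compared with the same well before compound.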
# human ether-à-go-go-related gene (hERG) potassium channel, sequence (Q12809 whole entry, looked up): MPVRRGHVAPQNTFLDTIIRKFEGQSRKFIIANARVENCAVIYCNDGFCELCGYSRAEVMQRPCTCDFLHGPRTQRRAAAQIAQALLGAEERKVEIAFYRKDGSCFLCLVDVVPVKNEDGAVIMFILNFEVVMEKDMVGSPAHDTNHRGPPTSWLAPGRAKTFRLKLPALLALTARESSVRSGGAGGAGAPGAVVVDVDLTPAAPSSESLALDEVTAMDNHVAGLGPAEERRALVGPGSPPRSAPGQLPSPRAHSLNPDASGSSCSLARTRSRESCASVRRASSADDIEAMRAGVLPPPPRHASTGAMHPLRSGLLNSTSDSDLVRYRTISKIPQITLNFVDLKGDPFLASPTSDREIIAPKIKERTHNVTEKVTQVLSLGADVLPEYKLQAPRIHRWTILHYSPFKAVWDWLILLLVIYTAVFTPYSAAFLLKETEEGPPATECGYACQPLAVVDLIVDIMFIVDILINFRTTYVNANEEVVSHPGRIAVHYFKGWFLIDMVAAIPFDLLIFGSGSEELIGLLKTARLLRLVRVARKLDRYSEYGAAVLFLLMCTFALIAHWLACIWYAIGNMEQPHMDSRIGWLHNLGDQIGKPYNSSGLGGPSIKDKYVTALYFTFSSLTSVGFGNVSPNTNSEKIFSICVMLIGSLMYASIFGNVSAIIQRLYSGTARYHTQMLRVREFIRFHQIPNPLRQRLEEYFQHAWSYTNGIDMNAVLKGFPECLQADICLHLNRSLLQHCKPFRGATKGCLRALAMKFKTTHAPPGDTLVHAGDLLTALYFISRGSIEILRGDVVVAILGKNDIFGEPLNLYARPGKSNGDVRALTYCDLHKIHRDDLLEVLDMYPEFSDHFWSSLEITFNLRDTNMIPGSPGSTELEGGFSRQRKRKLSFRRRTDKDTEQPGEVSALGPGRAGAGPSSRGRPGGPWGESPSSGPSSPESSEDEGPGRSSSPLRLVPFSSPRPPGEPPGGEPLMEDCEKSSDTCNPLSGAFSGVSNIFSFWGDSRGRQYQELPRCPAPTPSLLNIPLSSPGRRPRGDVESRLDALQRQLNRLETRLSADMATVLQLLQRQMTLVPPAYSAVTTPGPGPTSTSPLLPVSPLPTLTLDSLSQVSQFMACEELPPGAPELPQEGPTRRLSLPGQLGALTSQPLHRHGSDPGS
row,SMILES,"hERG current change (%, negative = inhibition) at 10uM [%]"
1,CC(C)NC(=O)CN1C(=O)NC(CCc2ccccc2)C1=O (centres unmarked),5.75
2,Cc1nc(NCCN2CCOCC2)c2nnn(Cc3ccccc3Cl)c2n1,-17.9
3,O=C(Nc1ccccc1F)C1CCCC1,13.6
4,Cc1cc(Oc2ccc(=O)n(C)n2)nc(Oc2ccc(=O)[nH]n2)n1,11.7
5,COc1ccc(C2=C(Nc3ccccc3)c3ccccc3C2=O)cc1,-2.19
6,Cc1oc(-c2ccccc2Cl)nc1Cn1cccc1C1=NC(c2ccccc2)CO1 (centres unmarked),8
7,CCOC(=O)c1sc(-c2ccccc2)cc1NC(=O)CSc1nnnn1C,-1.13
8,Cc1sc2c(=O)n3c(nc2c1C(=O)NCCCN1CCOCC1)CCCCC3,-17.9
9,CNC(=S)N1CCc2cc(OC)c(OC)cc2C1COc1ccc(F)cc1 (centres unmarked),-22.6
10,COc1cccc(CNCCNC(=O)c2nonc2N)c1.Cl,9.27
11,CCN1CCN(C(=O)Nc2cc(Cl)ccc2OC)CC1,2.98
12,Cn1cc(Cl)c(C(=O)NC2CCCCCC2)n1,1.36
13,Cc1ccc(-c2c[n+](CC(=O)N3c4ccccc4Sc4ccccc43)c3n2CCC3)cc1.[Cl-],-49.1
14,CN(C)/C=C/C(=O)c1ccc(C(F)(F)F)cc1F,15.3
15,CCOc1ncccc1C(=O)OCc1ccc(C#N)cc1,-25.8
16,O=C(O)c1cc(S(=O)(=O)NCc2ccco2)c(Cl)cc1Cl,14.9
17,Cc1cc(Cl)c(S(=O)(=O)N2CCSCC2)cc1OCC(N)=O,-15.7
18,CC(=O)N1CC(C)Sc2ccc(S(=O)(=O)NC3CCCCC3C)cc21 (centres unmarked),-18.9
19,O=C1CSCN1c1ccc(Cl)c(Cl)c1,-3.38
20,CSCC(O)Cn1[nH]c(=O)c2cc(Cl)c(Cl)cc2c1=O (centres unmarked),18.6
21,CCC(=O)c1ccc(OC(C)C(=O)NC2(C#N)CCCCC2)cc1 (centres unmarked),28.9
22,COc1ccc(NS(=O)(=O)c2ccc3[nH]c(=O)[nH]c3c2)cc1,27.7
23,O=C(Nc1ccc(Cl)cc1Cl)c1ccc2c(c1)OCCO2,0.458
24,Cc1cc(N2CCCC2)nc2ccc(NC(=S)NCCCOC(C)C)cc12,-83.4
25,CN(C)c1nc2c(N)ncnc2n1[C@H]1O[C@@H](CO)[C@H](O)[C@@H]1O,7.28
26,COc1cnc(-c2ccccn2)nc1Sc1ccccc1,-3.95
